# Like-named read-outs stand apart in the source and are kept apart here.
# Legend:
# Format in all cases: cell-based
# Trichophyton rubrum = test: MIC against Trichophyton rubrum; conditions: Trichophyton rubrum Castellani Sabouraud ATCC: 28188
# Bacillus thuringiensis = conditions: for MIC: Bacillus thuringiensis
# [1] = tested on: Burkholderia cenocepacia NRRL: B-59561; test: microbe, parasite or virus in culture
# [2] = tested on: Burkholderia thailandensis Brett et al ATCC: 700388; test: microbe, parasite or virus in culture
# Candida glabrata = Candida glabrata MIC / MFC; conditions: Nakaseomyces glabratus
# [3] = tested on: Francisella tularensis subsp. Holarctica Strain LVSR NR-597; test: microbe, parasite or virus in culture
# N. gonorrhoeae = N. gonorrhoeae MIC; conditions: Neisseria gonorrhoeae, strain #167
# C. albicans = test: Candida albicans MIC / MFC
# [4] = tested on: Francisella tularensis strains; test: microbe, parasite or virus in culture
# [5] = tested on: cell wall synthesis of S. aureus; test: Macromolecular synthesis assay, glucosamine incorporation into cell wall; conditions: dose-response, FIG. 2A-2B
smiles,measurement,setting,value
"Brc1ccc2[nH]cc(Sc3ccccc3Br)c2c1 [Compound 174I, 5-bromo-3-((2-bromophenyl)thio)-1H-indole]",MIC,Trichophyton rubrum,1.19 mg/L
same,MBC,Bacillus thuringiensis; Bacillus thuringiensis Berliner ATCC: 10792,1.56 mg/L
same,MIC,"Bacillus thuringiensis; ATCC10792, […]",1.56 mg/L
same,MIC,"Bacillus thuringiensis; Bacillus thuringiensis Berliner ATCC: 10792, read-out: MIC",0.78 mg/L
same,MIC,Bacillus thuringiensis; […],1.56 mg/L
same,MIC,Bacillus thuringiensis; strain B-1596,1.56 mg/L
same,MIC,[1],> 50 mg/L
same,MIC,[2],> 50 mg/L
same,MFC,Candida glabrata; C. glabrata strain #325,50 mg/L
same,MFC,Candida glabrata; C. glabrata strain #584 (Table 7),> 50 mg/L
same,MFC,"Candida glabrata; Candida glabrata #584 (Table 2), minimum fungicidal concentration",> 50 mg/L
same,MIC,[3],< 0.39 mg/L
same,MIC,N. gonorrhoeae,1.56 mg/L
same,MFC,C. albicans; C. albicans strain #761,25 mg/L
same,MFC,C. albicans; C. albicans strain #762,6.25 mg/L
same,MIC50,[4],2 mg/L
same,MIC,"[4]; read-out: MAX, highest MIC over the Francisella tularensis strains",8 mg/L
same,MIC,"[4]; read-out: MIN, lowest MIC over the Francisella tularensis strains",1 mg/L
same,cell wall synthesis inhibition (glucosamine incorporation),[5],substantial cell wall synthesis inhibition
